Drawing on the supplement of paper PMC9446081, this text covers relative growth for 60 compounds.

In all, about 39,000 compounds went through this assay and about 220 (0.56%) showed activity. The list shows a part of the results.
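Note: static incubation at 37 °C against the wild-type strain, values averaged over two biological replicates.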

The assay concerns Escherichia coli K-12 BW25113. Briefly: relative growth (OD600 normalised to plate interquartile mean) (fraction); higher = less growth inhibition, active = 0.2 or less. Particulars: 50 µM; LB; incubation time: overnight (16-24 h).
In the case of `COc1ccccc1CN(C)C[C@@H]1OCc2ccccc2-c2c(n(C)c3ccccc23)C(=O)N([C@H](C)CO)C[C@@H]1C`, the relative growth is inactive: 0.971.

Consider `COCC#Cc1ccc2c(c1)O[C@@H](CN(C)S(=O)(=O)c1cccc(F)c1)[C@@H](C)CN([C@H](C)CO)S2(=O)=O`, for which the relative growth was inactive: 1.

Regarding `Cc1noc(C)c1NC(=O)Nc1ccc2c(c1)CC(=O)N([C@H](C)CO)C[C@H](C)[C@@H](CN(C)CC1CC1)O2`, the relative growth is inactive: 1.02.

As to `Cc1ccc(S(=O)(=O)Nc2ccc3c(c2)C(=O)N([C@H](C)CO)C[C@H](C)[C@H](CN(C)C(=O)C2CCCCC2)OCCCC[C@H](C)O3)cc1`, the relative growth was inactive: 0.987.

With `COc1ccc(S(=O)(=O)N(C)C[C@@H]2Oc3ccc(NC(=O)NC(C)C)cc3C(=O)N([C@@H](C)CO)C[C@H]2C)cc1`, the relative growth was inactive: 0.986.

Turning to `C[C@H]1CN([C@@H](C)CO)C(=O)Cc2cc(NC(=O)C3CCCCC3)ccc2O[C@@H]1CN(C)Cc1ccc(-c2ccccc2)cc1`, the relative growth was inactive: 1.02.

As for `COc1ccc(NC(=O)Nc2ccc3c(c2)[C@@H]2C[C@@H](CC(=O)NCc4ccncc4)O[C@@H](CO)[C@@H]2O3)cc1`, the relative growth was inactive: 1.04.

With `C[C@H]1C[C@@H]2[C@@H](C[C@@H]1C)N[C@@H]1C(=O)NC(=O)N[C@H]1N2C[C@H](O)[C@H](O)[C@H](O)CO`, the relative growth was inactive: 0.953.

With `O=C(C[C@@H]1CC[C@@H](NC(=O)Cc2ccccn2)[C@H](CO)O1)NCCc1ccncc1`, the relative growth was inactive: 0.982.

Regarding `NCC1OC(OC2C(N)CC(N)C(OC3OC(CO)C(O)C(N)C3O)C2O)C(N)C(O)C1O.O=S(=O)(O)O` (stereo not given), the relative growth was active: 0.0483.

Take `C[C@@H]1CN([C@H](C)CO)S(=O)(=O)c2ccc(-c3ccncc3)cc2O[C@@H]1CN(C)C(=O)c1cccc(F)c1`: the relative growth was inactive: 0.983.

As to `O=S(=O)([O-])CCS.[Na+]`, the relative growth is inactive: 0.985.

As to `N#CCN1CCSCC1`, the relative growth is inactive: 1.01.

As to `N[C@H]1CC[C@H](CCn2cc(-c3ccccn3)nn2)O[C@@H]1CO`, the relative growth was inactive: 0.964.

Consider `CC(=O)O[C@@H]1[C@H]2OC(C)(C)O[C@H]2O[C@@H]1[C@@H](O)CO`, for which the relative growth is inactive: 0.987.

Turning to `C[C@H](CO)N1C[C@H](C)[C@@H](CN(C)C)Oc2ccc(NS(C)(=O)=O)cc2CC1=O`, the relative growth was inactive: 0.983.

As to `C[C@H]1CN([C@@H](C)CO)C(=O)c2cc(NS(=O)(=O)c3cn(C)cn3)ccc2O[C@H]1CN(C)S(=O)(=O)c1cn(C)cn1`, the relative growth is inactive: 1.01.

As for `O=C(C[C@@H]1C[C@@H]2c3cc(NC(=O)Nc4ccccc4F)ccc3O[C@@H]2[C@H](CO)O1)NCc1ccc(Oc2ccccc2)cc1`, the relative growth is inactive: 0.99.

Take `O=C(C[C@@H]1CC[C@@H](NC(=O)C2CC2)[C@@H](CO)O1)NCCCN1CCOCC1`: the relative growth is inactive: 0.943.

For `CC(C)(C)[S@](=O)N1Cc2cc(C(=O)NC3CCCCC3)nc(-c3cccc(Br)c3)c2[C@@H]1CCO`, the relative growth is inactive: 0.966.

Regarding `CC1(C)S[C@@H]2[C@H](NC(=O)[C@H](N)c3ccc(O)cc3)C(=O)N2[C@H]1C(=O)O`, the relative growth is inactive: 0.516.

As for `C[C@H](CS)C(=O)N1CCC[C@H]1C(=O)O`, the relative growth was inactive: 1.03.

On to `C[C@@H]1CN([C@H](C)CO)C(=O)c2cc(NC(=O)NC3CCCCC3)ccc2O[C@@H](C)CCCCO[C@@H]1CN(C)Cc1ccc2c(c1)OCO2`, for which the relative growth was inactive: 0.986.

For `C=C[C@H](CO[Si](CC)(CC)CC)N(Cc1ccc(OC(C)=O)c(OC)c1)S(=O)(=O)c1ccc(Br)cc1`, the relative growth is inactive: 1.03.

On to `COc1ccc(NC(=O)Nc2ccc3c(c2)C(=O)N([C@@H](C)CO)C[C@H](C)[C@@H](CN(C)S(=O)(=O)c2ccc(OC)cc2)OCCCC[C@H](C)O3)cc1`, for which the relative growth is inactive: 1.01.

As to `C[C@H]1CN([C@@H](C)CO)C(=O)c2cc(NC(=O)Cc3ccccc3)ccc2O[C@H]1CN(C)S(C)(=O)=O`, the relative growth was inactive: 0.995.

For the compound `C[C@@H]1CN([C@H](C)CO)C(=O)c2cccc(NC(=O)CCCCCC(=O)Nc3ccccc3N)c2O[C@H]1CN(C)CC1CCCCC1`, the relative growth is inactive: 0.952.

As for `C[C@@H]1CCCCO[C@H](CN(C)Cc2ccc3c(c2)OCO3)[C@H](C)CN([C@H](C)CO)C(=O)c2cc(NC(=O)c3ccccc3)ccc2O1`, the relative growth is inactive: 1.02.

Consider `C[C@@H]1CN([C@@H](C)CO)C(=O)c2cccc(NC(=O)C3CC3)c2O[C@H]1CN(C)S(=O)(=O)c1ccc(F)cc1`, for which the relative growth was inactive: 0.993.

As for `C[C@H](CO)N1C[C@H](C)[C@@H](CN(C)Cc2ccc(-c3ccccc3)cc2)Oc2ccc(NS(=O)(=O)c3cccs3)cc2CC1=O`, the relative growth was inactive: 0.968.

Consider `C[C@@H]1CN([C@@H](C)CO)C(=O)c2cccc(NC(=O)Nc3ccccc3)c2O[C@@H]1CN(C)Cc1ccc(Oc2ccccc2)cc1`, for which the relative growth was inactive: 1.

`C[C@H](CO)N1C[C@H](C)[C@@H](CN(C)S(=O)(=O)c2ccccc2)Oc2ccc(NS(=O)(=O)c3cccs3)cc2C1=O`: the relative growth was inactive: 0.985.

Consider `COc1ccc(S(=O)(=O)N(C)C[C@@H]2OCCCC[C@H](C)Oc3ccc(NS(=O)(=O)c4cn(C)cn4)cc3C(=O)N([C@H](C)CO)C[C@@H]2C)cc1`, for which the relative growth was inactive: 0.883.

As to `C[C@@H]1CN([C@H](C)CO)C(=O)c2cccc(NC(=O)Nc3ccc4c(c3)OCO4)c2O[C@@H]1CN(C)Cc1ccc(-c2ccccc2)cc1`, the relative growth was inactive: 1.02.

As to `CN(C)CCCNC(=O)C[C@H]1CC[C@H]2[C@H](COc3ccc(NS(C)(=O)=O)cc3C(=O)N2C)O1`, the relative growth was inactive: 1.01.

In the case of `O=C(O)CCCCCCCC(O)C(O)CCCCCCO` (stereo not given), the relative growth is inactive: 1.14.

In the case of `C[C@H]1CN(C(=O)N(C)C)CCN1C(=O)N(C)C`, the relative growth is inactive: 0.972.

As to `COc1ccc(NC(=O)N(C)C[C@H]2Oc3ccc(NC(=O)CCCN(C)C)cc3C(=O)N([C@@H](C)CO)C[C@H]2C)cc1`, the relative growth was inactive: 0.987.

With `C[C@H]1CN([C@@H](C)CO)C(=O)c2cccc(NC(=O)Nc3cccc4ccccc34)c2O[C@H]1CN(C)S(=O)(=O)c1ccccc1`, the relative growth is inactive: 0.973.

Consider `C[C@H](CO)N1C[C@H](C)[C@H](CN(C)S(=O)(=O)c2cccs2)Oc2ccc(NS(=O)(=O)c3ccccc3)cc2CC1=O`, for which the relative growth is inactive: 1.01.

Consider `C[C@@H]1CN([C@H](C)CO)C(=O)c2cc(NC(=O)C3CC3)ccc2O[C@H]1CN(C)S(=O)(=O)c1cccs1`, for which the relative growth is inactive: 0.992.

For `C[C@H](CO)N1C[C@H](C)[C@@H](CN(C)S(=O)(=O)c2ccc(Cl)cc2)Oc2ccc(NS(C)(=O)=O)cc2C1=O`, the relative growth was inactive: 0.992.

As to `COc1ccc(CN(C)C[C@@H]2OCCCC[C@@H](C)Oc3ccc(NC(=O)NC4CCCCC4)cc3C(=O)N([C@H](C)CO)C[C@H]2C)cc1`, the relative growth was inactive: 0.995.

Regarding `COc1cccc(S(=O)(=O)Nc2ccc3c(c2)OC[C@H](C)N(C(=O)Cc2cccnc2)C[C@@H](C)[C@H](OC)CN(C)C3=O)c1`, the relative growth is inactive: 0.998.

Take `C[C@@H]1CN([C@@H](C)CO)C(=O)c2cc(NS(C)(=O)=O)ccc2O[C@H]1CN(C)S(=O)(=O)c1ccc(F)cc1`: the relative growth is inactive: 1.01.

As for `C[C@@H]1CN([C@H](C)CO)C(=O)c2cc(NC(=O)CCC(F)(F)F)ccc2O[C@@H](C)CCCCO[C@H]1CN(C)S(=O)(=O)c1ccccc1`, the relative growth was inactive: 1.03.

In the case of `C[C@H](CO)N1C[C@H](C)[C@H](CN(C)Cc2ccccc2)OCCCC[C@H](C)Oc2ccc(NC(=O)Nc3ccc(C(F)(F)F)cc3)cc2C1=O`, the relative growth was inactive: 1.04.

Consider `COCC(=O)N(C)C[C@H]1Oc2cc(-c3ccc(OC)cc3)ccc2S(=O)(=O)N([C@H](C)CO)C[C@H]1C`, for which the relative growth was inactive: 0.993.

For `Cc1ccc(S(=O)(=O)Nc2ccc3c(c2)C(=O)N([C@H](C)CO)C[C@H](C)[C@H](CN(C)C(=O)NC(C)C)O3)cc1`, the relative growth is inactive: 1.02.

As for `C[C@H]1CN([C@@H](C)CO)C(=O)Cc2cc(NC(=O)Nc3cccc4ccccc34)ccc2O[C@@H]1CN(C)S(=O)(=O)c1cccs1`, the relative growth was inactive: 1.02.

As to `CN(C)CC(=O)N1CC(=O)N2[C@H](C1)[C@@H](c1ccc(C#Cc3cccnc3)cc1)[C@@H]2CO`, the relative growth was inactive: 0.973.

For `C[C@@H]1CCCCO[C@@H](CN(C)S(=O)(=O)c2ccc(Cl)cc2)[C@@H](C)CN([C@@H](C)CO)C(=O)c2cc(NS(=O)(=O)c3ccc(Cl)cc3)ccc2O1`, the relative growth was inactive: 1.

With `CC(C)NC(=O)Nc1ccc2c(c1)C(=O)N([C@H](C)CO)C[C@@H](C)[C@H](CN(C)C(=O)Nc1ccc(C(F)(F)F)cc1)OCCCC[C@H](C)O2`, the relative growth is inactive: 1.01.

For `COc1ccccc1S(=O)(=O)N[C@@H]1CC[C@@H](CCNC(=O)C2CCOCC2)O[C@H]1CO`, the relative growth is inactive: 0.995.

In the case of `COCCOC(=O)N1C(=O)[C@@]2(c3cc(C#CC4=CCCCC4)ccc31)[C@H](c1ccc(O)cc1)N1[C@H](c3ccccc3)[C@H](c3ccccc3)OC(=O)[C@H]1[C@@H]2C(=O)N1CCN(c2ncccn2)CC1`, the relative growth is inactive: 0.873.

Regarding `COc1ccc2c(=O)cc(-c3ccccc3OC)oc2c1`, the relative growth was inactive: 1.04.

In the case of `O=C(C[C@H]1CC[C@@H](NS(=O)(=O)c2ccccc2F)[C@H](CO)O1)NCCCN1CCOCC1`, the relative growth was inactive: 0.92.

`C[C@H](CO)N1C[C@H](C)[C@H](CN(C)C(=O)Nc2ccc(C(F)(F)F)cc2)OCCCC[C@H](C)Oc2ccc(N(C)C)cc2C1=O`: the relative growth is inactive: 0.959.

For the compound `Cc1cccc(S(=O)(=O)N2C[C@H](O)COC[C@@H]3O[C@H](CC(=O)NCc4ccncn4)CC[C@H]32)c1`, the relative growth was inactive: 1.01.

Regarding `COc1ccc(S(=O)(=O)N(C)C[C@@H]2OCCCC[C@@H](C)Oc3ccc(NC(=O)c4ccccc4)cc3C(=O)N([C@@H](C)CO)C[C@H]2C)cc1`, the relative growth is inactive: 1.01.
